Results from the supplement of paper PMC4466236.
Whole data set: some 33,000 sequences, median “E-score (dimensionless, -0.5 to 0.5)” near -0.058, cut for the highest 2% near 0.35. Some of the results follow.

test system: MvaT; assay: PBM 8-mer E-score (mean of HK and ME arrays) (E-score (dimensionless, -0.5 to 0.5)); higher = stronger relative binding preference; most listed sequences are background and not binding sites
How it was run: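 Full-length P. aeruginosa MvaT carrying an N-terminal glutathione S-transferase tag was tested by protein binding microarray following a previously described protocol. Two universal double-stranded 60-mer arrays, ME and HK, were used, each with a constant 25-mer primer region and a variable 35-mer region covering all 8-mers. The rank-based E-score is the mean of the two arrays, parsed with a custom script. Its range runs from -0.5 to 0.5 for each 8-mer.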

| Sequence | PBM 8-mer E-score |
| --- | --- |
| AAACGATT | 0.0531 |
| GCATCTGA | -0.223 |
| TGGAACCA | -0.0394 |
| GGTCACGA | -0.243 |
| CGGCAGAA | -0.142 |
| GCAGTGCC | -0.294 |
| ATATGTCA | 0.27 |
| CAAGGTGA | -0.162 |
| ATAACCGA | 0.202 |
| CCAGTTAA | 0.129 |
| AATTCATA | 0.227 |
| GTTATCCA | 0.122 |
| CCATAGAC | 0.00682 |
| GACCGTCC | -0.259 |
| AACACGTA | 0.131 |
| AACGTAGG | -0.0945 |
| GAGCGCTA | -0.193 |
| GCCAGGAA | -0.0628 |
| AGTGACAT | 0.0904 |
| CCAAACAG | 0.111 |
| GAGTAGAC | -0.0971 |
| CAAAGCTC | -0.204 |
| GCTATTTA | 0.252 |
| GAAGCATA | 0.00764 |
| ATGACGGA | 0.0245 |

| Sequence | PBM 8-mer E-score |
| --- | --- |
| AATCATCA | 0.0409 |
| CATGGAAA | 0.0655 |
| ACAGCAGG | -0.204 |
| GAGTGGGA | -0.248 |
| CCCATTAA | 0.115 |
| CCACGCGG | -0.298 |
| AAAAGACA | 0.0356 |
| ACGCACTG | -0.0124 |
| ACCGAGAA | -0.0905 |
| CTCCTAAC | -0.0334 |
| CTGTTTAC | -0.0364 |
| ACTCTGCC | -0.017 |
| AACAAAAG | 0.246 |
| GAGCTAGA | -0.134 |
| AGGCGTCC | -0.188 |
| GGCGGAAC | -0.146 |
| CATCCAGC | -0.156 |
| CCATGGCC | -0.228 |
| CTCTGAGA | -0.059 |
| GACTCTTA | 0.0799 |
| CCCTGAAC | -0.186 |
| GCGCAAGA | -0.123 |
| TACGATCA | 0.0229 |
| ATGTCTTG | 0.0131 |
| AAGCGAAG | -0.0917 |

| Sequence | PBM 8-mer E-score |
| --- | --- |
| AGTGAATG | 0.0409 |
| ACAATCAT | 0.191 |
| CGTGTATA | 0.217 |
| ATAGCGCA | -0.0123 |
| CGGGTCAG | -0.313 |
| CGCGAAAG | -0.237 |
| CTTACTAA | 0.161 |
| GATGAGAC | -0.135 |
| CTGCCTTC | -0.156 |
| GCTCACCC | -0.231 |
| AAGCCCAT | -0.123 |
| AAGGCCAA | -0.0804 |
| AACATCAT | 0.171 |
| CCTATTGA | -0.0596 |
| AGACCTAT | -0.162 |
| AAATTAAT | 0.426 |
| GAGCCGAC | -0.262 |
| CGCCTATA | 0.0163 |
| GCCTTAGA | -0.187 |
| CCTACACC | -0.222 |
| CATATGGA | 0.0392 |
| TGACGCCA | -0.23 |
| ATTGCCCA | 0.114 |
| CTGAGAAG | -0.123 |
| AGTCATCG | -0.269 |

| Sequence | PBM 8-mer E-score |
| --- | --- |
| TCGTGTAA | 0.0375 |
| GACGGAGA | -0.132 |
| ACTAACCC | -0.139 |
| CTCAAAAG | -0.194 |
| CGTATGCC | -0.164 |
| TACCGCCA | 0.103 |
| GACATAGA | 0.0048 |
| AAAGTGCG | 0.116 |
| GTATCCAC | 0.0224 |
| TTAGCAAA | 0.165 |
| GCGCCAGA | -0.246 |
| TCCATTAA | 0.244 |
| GCTTGTAC | -0.268 |
| CAATTGGC | -0.0444 |
| ACCGAACA | -0.12 |
| CCGGAGCA | -0.192 |
| ATTCATAG | 0.106 |
| AGCTTGCG | -0.227 |
| AATGTAGA | 0.198 |
| AGAGTTAG | 0.121 |
| CTGTATAA | 0.264 |
| TGTACAAA | 0.275 |
| AGCTCTGC | -0.282 |
| CAGCCCGC | -0.231 |
| GAAACCAC | -0.154 |

| Sequence | PBM 8-mer E-score |
| --- | --- |
| ACGTGCAA | 0.138 |
| GTTACGAA | -0.144 |
| TGCGCTAA | 0.0528 |
| GCCGTTCC | -0.236 |
| GACTAGAC | -0.129 |
| CAAACACG | 0.0231 |
| ACGCTGCC | -0.0458 |
| ATTGGCAG | -0.105 |
| CAGCAAAG | -0.137 |
| TATCTTGA | 0.171 |
| AAACAATA | 0.375 |
| GTCTCGAA | -0.195 |
| AGTCTCTC | -0.223 |
| TTGAGAAA | 0.135 |
| GCGGACCA | -0.215 |
| ATGTAATA | 0.317 |
| CACTGGGC | -0.225 |
| GCTAATCC | -0.00964 |
| CAAGATCG | -0.0377 |
| CTGTGGAA | -0.0858 |
| CTGTAAGC | -0.244 |
| GGTGCATA | 0.122 |
| AAGCCGGA | -0.238 |
| AACGTCGC | -0.0885 |
| CTTGAACA | -0.0207 |

| Sequence | PBM 8-mer E-score |
| --- | --- |
| CAAGAGCC | -0.126 |
| TATCTGCA | 0.161 |
| ACCTCCCG | -0.284 |
| AATCCGGT | -0.0559 |
| CAGGGGAC | -0.275 |
| CGATGGCG | -0.208 |
| CTTCACCC | -0.0312 |
| TACAAGGA | 0.0292 |
| GGCTCCTA | -0.175 |
| AAATTCTT | 0.202 |
| AAATATTT | 0.463 |
| CTGCTGGC | -0.206 |
| AATTTTCA | 0.28 |
| GACACTCA | -0.151 |
| CCACTCTA | -0.0493 |
| ACCGTCCG | -0.0624 |
| ACTCCACT | -0.122 |
| CTGCCAGA | -0.127 |
| ACAGCTTG | -0.162 |
| ATATACCG | 0.292 |
| CGCAGCTA | -0.0863 |
| AGTACACC | -0.0289 |
| TAATGCGA | 0.181 |
| CTTTCACC | 0.0209 |
| CCTAAGCC | -0.154 |

| Sequence | PBM 8-mer E-score |
| --- | --- |
| CCCGAACC | -0.262 |
| CAAACCAG | 0.029 |
| CCTGGTAG | -0.276 |
| CCTTATAC | 0.119 |
| CAGTCACG | -0.198 |
| CCGGTGCG | -0.289 |
| CAGTGGTC | -0.232 |
| GGTCCTGA | -0.23 |
| GGTAACAC | -0.0607 |
| CACACCGG | -0.205 |
| CACACGCA | -0.0659 |
| GAGTACCA | -0.178 |
| AGGTGTAC | -0.147 |
| AGTTCCAT | 0.0749 |
| AAACACCT | 0.0794 |
| TATCGTGA | 0.0878 |
| GGTTGTGA | -0.0521 |
| GGCGTCTA | -0.284 |
| TTAGACAA | 0.157 |
| AAGATGTG | -0.0435 |
| ACGCCCAC | -0.161 |
| GGACTACC | -0.179 |
